The supplement of paper PMC7826260
The list shows a part of the results. Each Rep nickase domain was tested in vitro on the same pool of single strands (3 µM enzyme, 1 h, 37 °C); shown is the middle of each 90-letter strand. Values are log2 of uncut reads against the no-enzyme pool; uncut sequences lie near 0, cut ones below; no hit call is given. Because reads are shares of a total, they shift together; uncut strands gain when others are lost, and binding without cutting may add a little.

The sequences below were run on T1, Rep nickase domain of tomato golden mosaic virus (assay: uncleaved DNA left, log2 of reads against the no-enzyme library (log2 ratio); higher = less cleavage (more negative = more Rep cleavage of the k-mer); sequences stand for … in CTCGTCCG…ACCGGAGA).
T1 sequence (residues 1-124 of Rep, tag left off): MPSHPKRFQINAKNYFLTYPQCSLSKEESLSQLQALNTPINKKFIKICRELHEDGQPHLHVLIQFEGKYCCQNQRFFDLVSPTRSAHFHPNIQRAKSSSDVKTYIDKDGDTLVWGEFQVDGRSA
Experimental: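 A pool of 90-nt single-stranded DNAs with seven random bases just before the constant AC of the nick site (name = the seven bases) was cut by 3 µM recombinant His6-SUMO-tagged Rep nickase domain (300 nM DNA, 50 mM HEPES pH 8.0, 50 mM NaCl, 1 mM MnCl2, 1 h, 37 °C, three replicates). Uncut DNA was amplified and sequenced.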

Sequence | uncleaved DNA left (log2)
ACAACGA | -0.12
TAGCCGT | -0.0359
TATTGAC | -0.0344
AAAATCG | 0.119
TCCCTGC | 0.0166
ATTCAAA | 0.209
GGCATTT | -0.0918
AGCACGC | -0.0733
GGCGCGC | -0.092
CGCTCCT | -0.201
GCAGAGG | 0.0522
TCATGAG | -0.155
ATCCCGA | -0.0165
CATCTTT | -0.133
TGCCACA | -0.06
TTGATAA | 0.103
CTCCCGT | -0.211
TATGGTA | 0.093
CTCTGTA | -0.0474
CTCCAAT | -0.0764

Sequence | uncleaved DNA left (log2)
AGCTCAG | -0.0178
CAAGATC | -0.0314
AATGTGA | 0.0556
ATGTGTC | -0.0246
TCGTCCA | 0.0353
AGAGCTC | 0.0564
GTGGGCA | 0.133
GAATACG | 0.0494
TGCCAGT | -0.154
ATATCCC | -0.0789
CTAGACG | -0.15
TTGTGCC | -0.092
CATTCGA | -0.116
AGCAGTG | 0.11
TTTAAAT | -0.0246
GAAATTG | 0.00617
ATTGGAT | 0.145
GCCGTCT | 0.039
GTGCACT | 0.0101
TAAAAGC | 0.0285
